The source gives no read counts; variants with many changes may rest on few reads.

B1: LINE1-mini (parent)
chain: GGCAGAGCUCAACACAGCGUGGCAAAGUGGCUGUGGCUAGACUGCC

In this data set the parent is B1. Briefly: self-cleavage, relative activity (ratio to wild type); higher = more cleavage; in vitro, sequencing; the parent is a self-cleaving ribozyme.
For the variant C13U C15G U20G U34G, the self-cleavage turned out to be 0.01. Under C13U A16U C18A stands 0.12; under A14C C18G G44A, 0.13.

In the case of C13G G27A U38C C42U, the self-cleavage is 0.04.

With C13G G29C U34A, the self-cleavage came out at 0.11. As to C13U U20C C45A, the self-cleavage amounted to 0.14. On to A14C G35U G40U, for which the self-cleavage came to 0.06. On to C13G U32C A39G, for which the self-cleavage was 0.03. With A14G G19A U20G, the self-cleavage worked out at 0.19. With A14G C31A A41C the figure was 0.03; with C13U C18A U28A C37U, 0.01. Under A14G C23A U32C U34A G35A stands 0.03.

With C13U A24C C31U, the self-cleavage came out at 0.03. With A14C G17A G19A the figure was 0.08; with A14G G19A C23A G27U G35U G40U C42A, 0.03. Under C13U G22U A24C stands 0.2; under C13G U20C G29U G40U C46G, 0.31. Under C13U A16U C31A stands 0.11; under A14C G35A U38C A41U, 0.1; under C13U A26U A41C C46U, 0.02. For A14G G35C G44C, the self-cleavage was 0. As for A14C U20C G33U C37G A39U, the self-cleavage is 0.02. With A14U C15G C23A the figure was 0.05; with C13U C15A A39U U43C C46U, 0.06. Under C13U G29A C46U stands 0.11; under C13U A41U C46G, 0.1. As to A14G A25C G35A G40U, the self-cleavage was determined as 0.06. With A14U A39C A41U the figure was 0.06. With A14G A16C C31A, the self-cleavage turned out to be 0.09.

With C13G G22U C23G, the self-cleavage stood at 0.24.

For the variant A14C G19A U32G, the self-cleavage was 0.07. For the variant A14C C37U C45U, the self-cleavage turned out to be 0.06.

Regarding A14C G19A G30A C42A, the self-cleavage was 0. Take A14G G33C G36A C42A: the self-cleavage turned out to be 0.07. On to C13U A24G G29U, for which the self-cleavage was determined as 0.21. As for A14U A16G C46U, the self-cleavage worked out at 0.03. For A14C G17C G21A A24C G30A, the self-cleavage came out at 0.22. On to A14G C23U U32C A39C, for which the self-cleavage was 0.03. As to C13U A41C C42G, the self-cleavage is 0.14. Under A14C C15A G27A U43C stands 0.01; under A14G G30U U32C U34G C45G, 0.03; under C13U C23U A25G U28A, 0.19.

For A14G C23A A39G G44C C45G, the self-cleavage worked out at 0.11.

On to C13U A26U A41G, for which the self-cleavage is 0.1. Turning to C13G G17U C46A, the self-cleavage stood at 0.03.

In the case of A14U C15A G17A G19C U38A, the self-cleavage was found to be 0.02. With A14G A26U A39U C42G C45U the figure was 0. C13G G33U A41U: the self-cleavage is 0.41.

Take A14C G21C A24G: the self-cleavage was determined as 0.05. As to A14C G22A A39U, the self-cleavage was 0.04. For the variant A14C G33A C37A, the self-cleavage is 0.07.

Turning to C13U A26U U34C, the self-cleavage came to 0.06.

For C13G U20A G33U C46U, the self-cleavage is 0.02. With A14C A26U G35C G36A U38C the figure was 0.03; with A14U C15G U32A C37G, 0.03; with C13U C15G A25U G29U, 0.02. For the variant C13U C18U U20G C23U, the self-cleavage came to 0.22. Under C13U G17A A25U G36A A39U stands 0.04; under C13G G22C G33U U34C A41C, 0. Under C13U G19A G40A stands 0.2. As to A14C G27U U34A, the self-cleavage came out at 0.01. In the case of C13U A14C A16G, the self-cleavage was determined as 0.03.

On to A14C G19U G44A, for which the self-cleavage is 0.03.

In the case of C13U U32A G40C, the self-cleavage was 0.05.

Take C13U U32A G40A: the self-cleavage was 0.03. With A14C G19U A25C U28A the figure was 0.05; with A14U A16U G19U C23U G35C, 0.05; with C13U G35A C42G C45U, 0.01.

In the case of C13U G19U A39U, the self-cleavage was 0.13. Turning to A14U C15U G40A, the self-cleavage stood at 0.04. C13U G17U G21A G44U: the self-cleavage amounted to 0.02.

In the case of A14U C15U C18U G21C U38C, the self-cleavage turned out to be 0.09. Under C13G G19A U20A C31A G44U stands 0. Turning to A14G C15G G19U G29U G33A A41G, the self-cleavage is 0.04.

As to C13U A25C G40C, the self-cleavage worked out at 0.01. For A14C G19A C46A, the self-cleavage came to 0.02. For A14U A24C U38C C45G, the self-cleavage came to 0.01. C13U A14C U32C: the self-cleavage was determined as 0.

Take C13U C15G C18A G19U U32A: the self-cleavage was found to be 0.04. With C13U C18U U28A C46A the figure was 0.06; with C13G G35U C37A, 0.07.

C13G G35U C37U: the self-cleavage is 0.11. With A14U A24C G29A C37G A39C the figure was 0.02; with A14U C18A C31A U43G C45A, 0.03; with C13G G30C G35A, 0.08. Turning to A14C G19U U34C, the self-cleavage is 0.04. With C13U C18A G30C the figure was 0.02; with C13G U32C G40U C42U C45A, 0.05; with C13U G21C U28A, 0.18. For the variant A14U C15U G27C C31U U32C G36C C37A C46G, the self-cleavage is 0.07. With C13G G21A G27C the figure was 0.2; with A14G G35U U38A, 0.1. With C13U G36U U38A C46U, the self-cleavage stood at 0.06. On to C13U C45A C46U, for which the self-cleavage was 0.15. With A14C G29U G30U the figure was 0.05; with C13U G40U G44U, 0.03; with C13U A24U A25C C45A, 0.08. Under C13U A14C A26C U34G G40C stands 0.01; under C13U A14C G17U G27U G30C, 0.01.

A14U C15A G19A U43A: the self-cleavage turned out to be 0.16. With C13U U34G U43G the figure was 0.07.

For A14G G21U C31G, the self-cleavage is 0.06. With C13U G21U A26C C31A C42A the figure was 0.04. C13G G22C A26U G35A: the self-cleavage is 0.07. As to C13G G30C C31U, the self-cleavage worked out at 0.03.

As to A14C C15A C31U, the self-cleavage worked out at 0.01. On to C13U A14U A24G, for which the self-cleavage is 0.23. Regarding C13U U28A G30A C31G, the self-cleavage came to 0.05. Under C13U A25U U28G G33A stands 0.03.

For the variant C13U C15A G22U C31A, the self-cleavage stood at 0.16. Regarding A14U C15U G27C, the self-cleavage stood at 0.11.

In the case of A14G A16C C18U A26C G27U G44A, the self-cleavage is 0. Take A14G G17U G29U C42A: the self-cleavage came to 0.21. On to A14G C18A C23G U32G G44C, for which the self-cleavage amounted to 0.01.

Turning to C13G G27A G33A U34G, the self-cleavage is 0.01. Under C13U C31A C37U C46U stands 0.12; under A14U A16U G22U A39C G44A, 0.02; under A14C U38G C46A, 0.02. Under C13G G36A A39G stands 0.13; under A14G U20C U32G G44U, 0.02. For the variant C13U A26U C42G, the self-cleavage was found to be 0.11. Under A14C A16U G33U U38A stands 0.24; under C13U U32A G33C G40U, 0.04. Regarding A14G G30U A41G, the self-cleavage is 0.06. With C13U A14U C18G C23G G40C G44U the figure was 0.09; with A14C G19U C23A U32A G40A, 0.03. For the variant C13U A14C G22C G27U C42G, the self-cleavage worked out at 0.01. Under A14G C18G G33C C46U stands 0; under A14C U28G G30C U34G C37U G40C, 0; under C13U G17A A26G, 0.03.

In the case of A14G C18G U32C, the self-cleavage amounted to 0.04.

Turning to A14U C15U G22U C31U C46A, the self-cleavage came to 0.06.

On to C13U C15G A39C G40U, for which the self-cleavage came to 0.02. Under A14C G35U A41U C45U stands 0.05.

Take A14C G22A G30A A41U: the self-cleavage was 0.16.

Regarding A14C A24G G27A G35C, the self-cleavage came to 0.05.

For A14C G30A C46G, the self-cleavage was determined as 0.03.

On to C13U G17U G30U C31U, for which the self-cleavage turned out to be 0.43. On to A14C G29A G30U G35U, for which the self-cleavage was determined as 0.11.

Take A14U A24U A25G G33A: the self-cleavage worked out at 0. A14C G22U A24G U32C: the self-cleavage is 0.06.

As for C13G U28A U34G, the self-cleavage came out at 0.11. On to A14C G36A U38C, for which the self-cleavage is 0.1.

Take A14C U20C G30A G33U: the self-cleavage stood at 0.04. With A14U A25C G35U C42G the figure was 0.09.

With C13U A14C C31U A39G, the self-cleavage is 0.05. As for C13U A25U G27C G33A, the self-cleavage turned out to be 0.09.

Turning to C13G U28G U34C A41G, the self-cleavage is 0.01. With A14G C15A G27C the figure was 0.09; with C13U G27U C45A, 0.15; with A14G A25C U34C G40C, 0.07.

For the variant A14G A24C G29U C37U, the self-cleavage worked out at 0.33. With C13U C15G G17U the figure was 0.02; with A14G G40C G44C, 0; with C13G G29U C31A U32G C46A, 0.06.

Consider C13G G27U G44A, for which the self-cleavage stood at 0.07. Under C13G G33A G35A C37U C42A stands 0.12; under C13G G30A C42U, 0; under C13U G33C C42A, 0.04. For C13G U20C A24C G29A, the self-cleavage is 0.09. With A14G A24U A25G G33U A41U the figure was 0.04; with C13G G30A A39C, 0.04.

For the variant A14C G27C G36U, the self-cleavage was 0.01. For A14C U20A G27C U32G C42U, the self-cleavage amounted to 0.12. With C13U C23U G27A the figure was 0.38. With A14G C23U A24C the figure was 0.45. As to C13U C23U G29U, the self-cleavage is 0.14.

Source of the values: the RNAGym collection of RNA variant scans (doi:10.7554/elife.90254).
